# Test results taken from PubChem BioAssay AID504332 (National Center for Advancing Translational Sciences (NCATS), 2011).
# “And” between values parts separate entries of the source, which are not always exact repeats. Equal values may be shown once. The whole screen tested about 350,000 compounds, of which about 31,000 (8.9%) were called active. This list was built around the results that the source calls inconclusive (neither active nor inactive); the mix of calls is not that of the screen. The call rests on the fitted dose curve; in most records, active means well fitted inhibition curve with a large enough effect; inconclusive means small, poorly fitted or top-dose-only effect; inactive means no such curve, though single readings can be large or run the other way. Potencies of inconclusive entries are doubtful fits and often do not repeat.
# Molecular target: Histone-lysine N-methyltransferase EHMT2 (Homo sapiens) (UniProt Q96KQ7)
# UniProt Q96KQ7, sequence (Q96KQ7 whole entry, looked up): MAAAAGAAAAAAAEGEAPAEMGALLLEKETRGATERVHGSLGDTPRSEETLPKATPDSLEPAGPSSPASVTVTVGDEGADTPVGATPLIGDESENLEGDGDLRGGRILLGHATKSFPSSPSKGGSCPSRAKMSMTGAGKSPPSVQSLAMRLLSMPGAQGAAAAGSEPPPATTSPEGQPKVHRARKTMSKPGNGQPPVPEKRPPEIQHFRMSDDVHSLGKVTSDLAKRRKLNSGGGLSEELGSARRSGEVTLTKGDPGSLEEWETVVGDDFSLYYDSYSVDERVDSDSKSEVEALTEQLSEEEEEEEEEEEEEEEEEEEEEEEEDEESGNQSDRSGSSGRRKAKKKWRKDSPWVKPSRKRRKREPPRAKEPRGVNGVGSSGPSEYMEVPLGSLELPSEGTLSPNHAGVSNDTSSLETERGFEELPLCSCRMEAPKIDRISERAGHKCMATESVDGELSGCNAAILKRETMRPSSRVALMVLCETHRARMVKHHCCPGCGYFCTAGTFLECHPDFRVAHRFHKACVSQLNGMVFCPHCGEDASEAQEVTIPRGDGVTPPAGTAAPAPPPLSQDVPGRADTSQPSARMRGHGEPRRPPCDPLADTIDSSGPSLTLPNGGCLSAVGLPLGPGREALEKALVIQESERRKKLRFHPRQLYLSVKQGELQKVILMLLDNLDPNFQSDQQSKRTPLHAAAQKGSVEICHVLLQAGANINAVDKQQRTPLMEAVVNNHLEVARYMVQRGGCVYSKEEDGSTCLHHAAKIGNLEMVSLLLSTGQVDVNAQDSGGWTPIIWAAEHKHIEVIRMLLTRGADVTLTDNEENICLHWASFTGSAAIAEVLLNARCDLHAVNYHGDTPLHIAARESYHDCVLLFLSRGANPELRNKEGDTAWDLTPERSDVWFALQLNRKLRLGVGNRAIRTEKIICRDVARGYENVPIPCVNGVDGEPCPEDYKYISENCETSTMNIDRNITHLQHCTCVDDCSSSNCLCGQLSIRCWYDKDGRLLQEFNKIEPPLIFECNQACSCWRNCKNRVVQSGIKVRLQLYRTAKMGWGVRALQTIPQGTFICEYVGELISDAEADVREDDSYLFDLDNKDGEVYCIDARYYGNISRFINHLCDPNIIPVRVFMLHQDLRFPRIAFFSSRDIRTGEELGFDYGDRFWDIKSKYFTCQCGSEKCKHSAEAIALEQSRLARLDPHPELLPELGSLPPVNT
# Assay: qHTS Assay for Inhibitors of Histone Lysine Methyltransferase G9a; further: nearly all actives have a fitted effect of over 75% in size
# Conditions: G9a H3K9 monomethylation, AlphaScreen, 2 h; activity, negative = inhibition: at 59 µM (top of the series) unless noted
# How it was run: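 G9a (20 nM) was preincubated 15 min with compound, then reacted 2 h at room temperature with 500 nM biotin-H3K9 peptide and 20 µM SAM. Monomethyl-H3K9 detected by AlphaScreen using anti-H3K9me1 antibody.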
# On the % scale 0 is the no-effect control and ±100 the full control effect; potency means the concentration at half of the fitted maximal effect; tags describe the fitted curve by direction and shape.
SMILES,Potency,"activity, negative = inhibition"
CCOc1ccc(Br)cc1C1C(C(=O)OC)=C(N)Oc2cc(N(C)C)ccc21 (centres undefined),"inconclusive: 35.5 µM [inhibitor, single point]",
O=c1c(CN2CCN(c3ccccn3)CC2)coc2ccccc12,"inconclusive: 4.47 µM [inhibitor, partial curve, poor fit]",
Cc1nnc(NC(=O)CSc2ccc3nnc(-c4cccnc4)n3n2)s1,"inconclusive: 3.98 µM [inhibitor, full curve, poor fit]",
Cc1ccc(Sc2c(C)[nH]n(C(C)(C)C)c2=O)cc1,,inactive: 24%
O=C(NCCC(c1ccccc1)c1ccco1)c1cccs1 (centres undefined),"inconclusive: 79.4 µM [inhibitor, single point]",
COc1ccc(C(=O)NCc2cn3ccsc3n2)cc1OC,"inconclusive: 50.1 µM [inhibitor, partial curve]",
COc1ccc(N2CC(NC(=O)C3CC3)CC2=O)cc1OC (centres undefined),,inactive: -0.639%
CC1(CCc2ccccc2)NC(=O)N(Cc2cc([N+](=O)[O-])cc3c2OCOC3)C1=O (centres undefined),"inconclusive: 35.5 µM [inhibitor, partial curve]",
CC(=O)c1ccc(NC(=O)CN(C)S(=O)(=O)c2cccc3nsnc23)cc1,,inactive: -33.9%
COc1ccc(C2CC(=O)N(CCCN(C)CCc3ccc(OC)c(OC)c3)C2)cc1 (centres undefined),"inconclusive: 63.1 µM [inhibitor, partial curve, poor fit]",
Cc1ccc(-n2c(CNc3cccc(Cl)c3)n[nH]c2=S)cc1,active: 4.47 µM,
O=C(Oc1ccc(Br)cc1)C1CCN(C2=NS(=O)(=O)c3ccccc32)CC1,"inconclusive: 79.4 µM [inhibitor, single point]",
Nc1c(Cl)cc(C2=NCCn3nc4cc([N+](=O)[O-])ccc4c32)cc1Cl,,inactive: 22.3% [at 2.33 µM]
Oc1c(C(c2ccccc2)N2CCCCC2)sc2ncnn12 (centres undefined),,inactive: 15.9%
O=C(O)c1cc(NS(=O)(=O)c2ccc(NCc3ccccc3)c([N+](=O)[O-])c2)cc(C(=O)O)c1,"inconclusive: 28.2 µM [inhibitor, single point]",
O=C(NC1=NCCS1)C1Cc2ccccc2CN1C(=O)c1ccccc1 (centres undefined),"inconclusive: 0.708 µM [inhibitor, full curve, poor fit]",
Nc1nc2nc(SCC(=O)N3CCCc4ccccc43)[nH]c2c(=O)[nH]1,active: 79.4 µM,
Cc1nnc(SCc2ccc([N+](=O)[O-])cc2)o1,,inactive: -8.34% [at 102 µM]
COc1ccc(Cn2c(=O)n(Cc3ccco3)c(=N)c3c4c(sc32)COC(C)(C)C4)cc1,"inconclusive: 39.8 µM [inhibitor, partial curve]",
CS(=O)(=O)N(CC(=O)NCc1ccco1)c1ccc(Cl)c(C(F)(F)F)c1,"inconclusive: 79.4 µM [inhibitor, partial curve, poor fit]",
COc1ccc(C2=C(Nc3ccc(C)c(C)c3)c3ccccc3C2=O)cc1,"inconclusive: 1.78 µM [inhibitor, partial curve, poor fit]",
Cc1ccc(NC(=O)CN(C)CC(=O)Nc2ccc(N3CCOCC3)cc2)c([N+](=O)[O-])c1,"inconclusive: 28.2 µM [inhibitor, single point]",
O=C(CN(Cc1cccs1)C(=O)c1csnn1)NC1CCCC1,,inactive: -8.76%

SMILES,Potency,"activity, negative = inhibition"
O=[N+]([O-])c1cc(Cl)ccc1Sc1cccc2cccnc12,"inconclusive: 79.4 µM [inhibitor, partial curve, poor fit]",
COc1cc(C(=O)N2CCN(Cc3ccc4c(c3)OCO4)CC2)cc(OC)c1OC,active: 20 µM,
CCOC(=O)c1c(NC(=S)N2CCN(C)CC2)sc(C)c1-c1ccccc1,active: 44.7 µM,
Nc1ccc2cc3ccc(N)cc3nc2c1,active: 28.2 µM,
Cc1cc(C)c(C)c(OCCCN(C)C)c1,"inconclusive: 39.8 µM [inhibitor, single point]",
O=C(CSc1cccc[n+]1[O-])Nc1ccc(C(F)(F)F)cc1[N+](=O)[O-],"inconclusive: 50.1 µM [inhibitor, partial curve]",
Cc1ccc(S(=O)(=O)N(CC(=O)O)Cc2ccccc2)cc1,"inconclusive: 89.1 µM [inhibitor, partial curve, poor fit]",
COCc1ccc(C(=O)N2CCCC(N3CCN(c4ccc(F)cc4)CC3)C2)o1 (centres undefined),,inactive: -8.78% [at 102 µM]
Cc1ccn2c(=O)c(C(=O)NC(C)c3ccccc3)c(O)nc2c1 (centres undefined),,inactive: 0.291%
Cc1ccc(SCC(=O)OCC(=O)NCc2ccco2)cc1,,inactive: 23.2% [at 12.7 µM]
O=C(O)C1(P(=O)(c2ccccc2)c2ccccc2)CCC1,"inconclusive: 28.2 µM [inhibitor, single point]",
COCCNc1nc(-c2cc3ccccc3o2)cs1,"inconclusive: 31.6 µM [inhibitor, single point]",
COc1ccc(/C=N/n2c(-c3ccccc3)n[nH]c2=S)cc1,active: 1.41 µM,
CCCCN=C1NN=C(c2cccc([N+](=O)[O-])c2)CS1,active: 11.2 µM,
CC(C(=O)N(C)C1CCS(=O)(=O)C1)N1C(=O)/C(=C/c2cccs2)SC1=S (centres undefined),,inactive: -69% [at 102 µM]
CC(=O)NCc1ccc(-c2csc(NC(=O)CCCc3nc4ccccc4c(=O)[nH]3)n2)cc1,"inconclusive: 6.31 µM [inhibitor, single point]",
O=C(OCn1ncc(Br)c(Br)c1=O)c1ccccc1Cl,,inactive: 0.497% [at 12.7 µM]
COc1ccc(OCC(=O)NNC(=O)c2cccc(C)c2)cc1,,inactive: 1.31% [at 102 µM]
COc1ccc(CCNC(=O)c2ccc3c(c2)N(Cc2ccc(F)cc2)CCS3)cc1OC,"inconclusive: 17.8 µM [inhibitor, partial curve, poor fit] and inconclusive: 6.31 µM [inhibitor, partial curve, poor fit]",
CCc1ccc(N2CC(C(=O)Nc3cccnc3)CC2=O)cc1 (centres undefined),"inconclusive: 89.1 µM [inhibitor, single point]",
CC(=O)N1CCC[C@@]2(CCN(Cc3ccccc3)C2)C1,,inactive: -1.64% [at 12.7 µM]
Brc1ccc(-c2nnc3ccc(Nc4ccccc4)nn23)cc1,"inconclusive: 3.98 µM [inhibitor, full curve]",
COc1ccc(CCN2CC(C(=O)OCC(=O)Nc3c(C)nn(-c4ccccc4)c3C)CC2=O)cc1OC (centres undefined),,inactive: -29.6% [at 102 µM]

SMILES,Potency,"activity, negative = inhibition"
O=C(CSCc1cnn(-c2ccccc2)c1-n1cccc1)NCC1CCCO1 (centres undefined),active: 50.1 µM,
NS(=O)(=O)c1ccc(CCNC(=O)C2CCN(S(=O)(=O)c3ccccc3)CC2)cc1,"inconclusive: 11.2 µM [inhibitor, partial curve, poor fit]",
Cc1cc2c(c(=O)o1)C(CCC1CCCCC1)C(C#N)=C(N)O2 (centres undefined),"inconclusive: 79.4 µM [inhibitor, single point]",
O=S(=O)(c1ccccc1)c1nc(-c2cccs2)oc1SCc1ccc(F)cc1,"inconclusive: 28.2 µM [inhibitor, single point]",
Cc1ccc(S(=O)(=O)Nc2cccc(-c3ccc(N4CCCCCC4)nn3)c2)cc1,,inactive: 16.5% [at 102 µM]
COc1ccc(CNC(=O)COC(=O)c2ccc(F)c(S(=O)(=O)N3CCCCC3)c2)cc1OC,"inconclusive: 39.8 µM [inhibitor, single point]",
O=C(O)CSc1cc(NS(=O)(=O)c2ccc(Cl)cc2)c2ccccc2c1O,active: 3.98 µM,
CC(=O)Oc1cc2oc(=O)cc(C)c2cc1OC(C)=O,active: 0.501 µM,
CCNCCNC(=O)c1c(O)c2c([nH]c1=O)CCCC2,"inconclusive: 28.2 µM [inhibitor, partial curve]",
Cc1sc(NC(=O)CS(=O)(=O)c2ccccc2)c(C#N)c1C,"inconclusive: 89.1 µM [inhibitor, partial curve, poor fit]",
CCCCCSc1nnc(-c2cc(Br)ccc2N)c(=O)[nH]1,active: 44.7 µM,
COc1ccc(-c2cn3nc(SCC(=O)Nc4ccc(C)c(Cl)c4)ccc3n2)cc1,,inactive: 8.18%
COc1cc(/C=N/NC(=O)c2cc(-c3ccccc3)sc2N)cc(OC)c1OC,"inconclusive: 39.8 µM [inhibitor, partial curve, poor fit]",
CCOC(=O)c1sc(N2N=C(C)C(N=Nc3cccc(C)c3)C2=O)nc1C (centres undefined),active: 50.1 µM,
O=S(=O)(NCC1OCCc2ccccc21)c1ccccc1 (centres undefined),,inactive: -24.8% [at 2.33 µM]
Cc1cc(C)c(NC(=O)COc2ccc3c(C)cc(=O)oc3c2)c(C)c1,"inconclusive: 0.891 µM [inhibitor, partial curve, poor fit]",
OCC[C@H]1C[C@@H](O)[C@H](O)[C@@]2(OCc3ccccc32)O1,,inactive: -9.35% [at 2.33 µM]
Cc1ccc(Sc2ccc(S(=O)(=O)Nc3ccc(CC(=O)O)cc3)cc2)cc1C,"inconclusive: 3.55 µM [inhibitor, single point]",
O=C(Nc1ccccc1C(=O)N1CCOCC1)c1ccco1,"inconclusive: 89.1 µM [inhibitor, single point]",
Cc1ccc(S(=O)(=O)N(C)C)cc1NC(=O)COC(=O)c1ccc2c(c1)NC(=O)CS2,"inconclusive: 35.5 µM [inhibitor, partial curve, poor fit]",
Cc1cc(SCC(=O)c2ccc(Cl)cc2)nc(=O)[nH]1,"inconclusive: 11.2 µM [inhibitor, partial curve]",
COc1ccc(OC)c(CCNC(=O)c2c3c(nc4ccccc24)C(=O)N(C2CCCCC2)C3)c1,,inactive: -3.18%
O=C(CSc1nnc(-c2ccccc2Cl)o1)Nc1ccc2c(c1)OCCO2,"inconclusive: 22.4 µM [inhibitor, partial curve, poor fit]",
